Several values for one entry are separate records, joined by “and”; a condition that tells them apart may be missing. Identical values can stand only once. In all, about 270,000 compounds went through this assay and about 5,800 (2.1%) were called active. This list was built around the results that the source calls inconclusive (neither active nor inactive); the mix of calls is not that of the screen. The call rests on the fitted dose curve; in most records, active means well fitted inhibition curve with a large enough effect; inconclusive means small, poorly fitted or top-dose-only effect; inactive means flat fitted curve, though single readings scatter. Potencies beside an inconclusive call are fits to weak or partial responses and may not hold up.
biological target: Microtubule-associated protein tau (Homo sapiens) (UniProt P10636); test: qHTS for Inhibitors of Tau Fibril Formation, Thioflavin T Binding; settings: recombinant tau K18 P301L, heparin-induced fibrillization, ThT fluorescence; series mostly up to 57.4 µM; activity, negative = inhibition: at the top concentration; further: nearly all actives have a fitted effect of over 55% in size
UniProt P10636, sequence (P10636 whole entry, looked up): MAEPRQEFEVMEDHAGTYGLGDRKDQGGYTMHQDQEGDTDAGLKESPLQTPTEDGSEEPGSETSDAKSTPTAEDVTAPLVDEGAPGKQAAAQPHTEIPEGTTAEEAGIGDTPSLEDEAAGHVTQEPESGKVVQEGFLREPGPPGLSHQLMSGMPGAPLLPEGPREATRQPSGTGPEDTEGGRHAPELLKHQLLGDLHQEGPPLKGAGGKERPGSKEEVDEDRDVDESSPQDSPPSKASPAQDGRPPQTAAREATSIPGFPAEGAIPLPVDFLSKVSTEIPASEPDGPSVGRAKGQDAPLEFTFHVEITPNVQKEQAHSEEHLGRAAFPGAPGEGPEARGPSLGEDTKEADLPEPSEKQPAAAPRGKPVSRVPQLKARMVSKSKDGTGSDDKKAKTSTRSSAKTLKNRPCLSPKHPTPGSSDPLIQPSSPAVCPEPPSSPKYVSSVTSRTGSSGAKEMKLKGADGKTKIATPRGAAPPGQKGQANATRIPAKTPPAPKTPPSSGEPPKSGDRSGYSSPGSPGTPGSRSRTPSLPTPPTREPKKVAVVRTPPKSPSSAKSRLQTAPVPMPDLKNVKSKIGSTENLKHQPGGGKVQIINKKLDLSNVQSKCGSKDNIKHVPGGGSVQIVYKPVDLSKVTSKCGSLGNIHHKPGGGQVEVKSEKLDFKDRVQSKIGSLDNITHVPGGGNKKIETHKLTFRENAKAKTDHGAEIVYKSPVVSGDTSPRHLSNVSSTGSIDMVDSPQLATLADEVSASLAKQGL
Outline: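 Fibril formation assay: tau K18 P301L at 15 uM with trace Alexa 594 label, heparin inducer 20 uM, pH 7 sodium acetate buffer, 37 C for 6 hr; endpoint ThT signal.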
On the % scale 0 is the no-effect control and ±100 the full control effect; potency means the concentration at half of the fitted maximal effect; tags describe the fitted curve by direction and shape.

**Q.** With `CCOc1ccc(/C=C/c2nc(C#N)c(NC(C)c3ccccc3)o2)cc1` (stereo unspecified) as the compound, how does the Potency read?
**A.** inconclusive: 5.62 µM [inhibitor, partial curve]

**Q.** How did the Potency turn out when `COc1ccc(Br)cc1[C@@H]1Nc2ccc(C(=O)O)cc2[C@@H]2C=CC[C@@H]21` was run?
**A.** inconclusive: 14.1 µM [inhibitor, single point]

**Q.** For `CCOC(=O)c1cccc(NC(=O)c2oc3c(c2C)-c2nn(CC)cc2CC3)c1`, which “activity, negative = inhibition” value is on record?
**A.** inactive: -7.93%

**Q.** `CCOC(=O)[C@@H]1CCNC[C@@H]1c1ccccc1` was tested. Which Potency did it give?
**A.** inconclusive: 0.708 µM [inhibitor, full curve, poor fit]

**Q.** How did the Potency turn out when `Brc1ccc(-c2noc(COc3ccc4ccccc4c3)n2)o1` was run?
**A.** inconclusive: 7.94 µM [inhibitor, partial curve]

**Q.** For `CC(C(=O)Nc1ccc(OC(F)(F)F)cc1)N1Cc2ccccc2C1=O` (stereo unspecified), which “activity, negative = inhibition” value is on record?
**A.** inactive: 3.16%

**Q.** Which “activity, negative = inhibition” value does the source give for `COc1ccc(CNC(=O)C(C)n2nc(C)c3c(C)n(-c4ccccc4)nc3c2=O)c(OC)c1` (stereo unspecified) here?
**A.** inactive: 13.1%

**Q.** `O=C(O)c1ccc(N/N=C/c2cn(Cc3ccc(F)cc3)c3ccccc23)cc1` was tested. Which Potency did it give?
**A.** inconclusive: 20 µM [inhibitor, partial curve]

**Q.** `Cc1cccc(N2CCN(S(=O)(=O)c3cc(C(=O)Nc4ccc(Oc5ccccc5)cc4)ccc3F)CC2)c1C` was tested. Which “activity, negative = inhibition” value did it give?
**A.** inactive: -0.492%

**Q.** With `COc1ccc(OC)c(Nc2sc(C(=O)c3ccccc3)c(N)c2S(=O)(=O)c2ccccc2)c1` as the compound, how does the “activity, negative = inhibition” value read?
**A.** inactive: 6.02%

**Q.** How did the Potency turn out when `C[C@]1(C(=O)NCCCNc2ncc(C(F)(F)F)cc2Cl)C=C[C@@H](Cc2ccccc2)N1C(=O)c1ccccc1` was run?
**A.** inconclusive: 63.1 nM [inhibitor, full curve, poor fit] and inconclusive: 5.01 µM [inhibitor, partial curve, poor fit]

**Q.** How did the Potency turn out when `CC(C)CC1=NN2C(=N)/C(=C\c3coc4ccccc4c3=O)C(=O)N=C2S1` was run?
**A.** active: 31.6 µM

**Q.** How did the Potency turn out when `COc1cc(NC(=O)c2cccs2)c(C(=O)OCC(=O)NC(C)c2ccccc2)cc1OC` (stereo unspecified) was run?
**A.** inconclusive: 31.6 µM [inhibitor, partial curve]

**Q.** `COc1cc(C2N(c3ccccc3)CCN2c2ccccc2)ccc1OC(C)=O` was tested. Which “activity, negative = inhibition” value did it give?
**A.** inactive: -5.87%

**Q.** For `Cc1ccc(C)c(CSc2nnc(C)n3c2cc2sccc23)c1`, which Potency is on record?
**A.** inconclusive: 22.4 µM [inhibitor, partial curve]

**Q.** `COC(=O)Cn1c2ccc(OC)cc2c2nc3ccccc3nc21` was tested. Which Potency did it give?
**A.** inconclusive: 8.91 µM [inhibitor, partial curve]

**Q.** With `CC(=O)c1ccc(-n2c(CCC(=O)O)ccc2-c2cccs2)cc1` as the compound, how does the Potency read?
**A.** inactive and inconclusive: 35.5 µM [inhibitor, partial curve]

**Q.** For `Cc1ccc(CC(=O)O/N=C(\N)Cc2ccc([N+](=O)[O-])cc2)cc1`, which Potency is on record?
**A.** inconclusive: 39.8 µM [inhibitor, single point]

**Q.** `Cc1c(NC(=O)CCC2CCCCC2)cc(C(=O)N2CCOCC2)cc1[N+](=O)[O-]` was tested. Which “activity, negative = inhibition” value did it give?
**A.** inactive: -8.07%

**Q.** `Cc1ccc(O)c(C2=Nc3ccccc3N=C(c3cccc([N+](=O)[O-])c3)C2)c1` was tested. Which Potency did it give?
**A.** inconclusive: 7.94 µM [inhibitor, partial curve]

**Q.** For `CC(C)C(=O)Nc1nc2c(s1)CC(C(C)(C)C)CC2` (stereo unspecified), which “activity, negative = inhibition” value is on record?
**A.** inactive: -5.04%

**Q.** How did the “activity, negative = inhibition” value turn out when `Cc1ccc(-c2noc(C3CCCN(S(=O)(=O)c4ccc(S(=O)(=O)N(C)C)cc4)C3)n2)o1` (stereo unspecified) was run?
**A.** inactive: 3.69%

**Q.** How did the Potency turn out when `O=C(NC(=S)Nc1ccc2c(c1)OCO2)c1ccccc1` was run?
**A.** inconclusive: 17.8 µM [inhibitor, partial curve]

**Q.** For `Cn1c(SCc2ccccc2)nnc1-c1c[nH]c2ccccc12`, which Potency is on record?
**A.** inconclusive: 14.1 µM [inhibitor, partial curve]

**Q.** How did the Potency turn out when `Cc1ccc(C)c(N2CCN(CCCNC(=O)c3cnn(-c4ccc(F)cc4)c3C3CCN(C(=O)OC(C)(C)C)CC3)CC2)c1` was run?
**A.** inconclusive: 22.4 µM [inhibitor, partial curve]

**Q.** Which “activity, negative = inhibition” value does the source give for `C/C(CC(C)(C)C1CCCCC1)=N\NC(N)=S` here?
**A.** inactive: -17.5%

**Q.** Which “activity, negative = inhibition” value does the source give for `CNc1ncnc2c1ncn2[C@H]1C[C@H](OP(=O)(O)O)[C@H](COP(=O)(O)O)O1` here?
**A.** inactive: -0.169%

**Q.** Which Potency does the source give for `O=C1OCC(CO)(CO)N=C1NNc1ccccc1[N+](=O)[O-]` here?
**A.** inconclusive: 28.2 µM [inhibitor, partial curve]

**Q.** `CCN(CC)c1ccc(-c2c(C#N)c(N)nc(OC)c2C#N)cc1` was tested. Which Potency did it give?
**A.** inconclusive: 8.91 µM [activator, partial curve]

**Q.** How did the Potency turn out when `Cc1ccc(-n2cc(CNCCc3ncc(C)[nH]3)c(-c3ccc(F)cc3)n2)cc1` was run?
**A.** inconclusive: 14.1 µM [inhibitor, partial curve]

**Q.** With `CC(=O)CCc1ccc(OC(=O)c2cccnc2)cc1` as the compound, how does the “activity, negative = inhibition” value read?
**A.** inactive: -2.97%

**Q.** For `CC(=O)c1ccc(NC(=O)C2CCN(S(=O)(=O)c3cccs3)CC2)cc1`, which Potency is on record?
**A.** inconclusive: 12.6 µM [inhibitor, partial curve]

**Q.** Which “activity, negative = inhibition” value does the source give for `Cc1ccc(C(=O)NC(=S)Nc2cc(-c3nc4ccccc4s3)ccc2C)cc1` here?
**A.** inactive: -15.1%

**Q.** How did the “activity, negative = inhibition” value turn out when `CC(C)c1ccc(C(=O)NC(=S)NCc2cccnc2)cc1` was run?
**A.** inactive: -14.1%

**Q.** `OCCCn1c(-c2ccc(F)cc2)csc1=Nc1ccc(F)cc1` was tested. Which Potency did it give?
**A.** inconclusive: 12.6 µM [inhibitor, partial curve]

**Q.** With `COc1ccc(NC(=O)C2CC(c3cc(OC)c(OC)c(OC)c3)=NO2)cc1OC` (stereo unspecified) as the compound, how does the Potency read?
**A.** inconclusive: 35.5 µM [inhibitor, partial curve]

**Q.** With `CCOc1nc(NCc2ccco2)nc(Nc2ccc(OC)cc2)n1` as the compound, how does the Potency read?
**A.** inconclusive: 6.31 µM [inhibitor, single point]

**Q.** For `Cc1noc(/C=C/c2ccccc2F)c1S(=O)(=O)N1CCC(C(=O)NCC(C)c2ccccc2)CC1` (stereo unspecified), which “activity, negative = inhibition” value is on record?
**A.** inactive: 6.13%

**Q.** How did the “activity, negative = inhibition” value turn out when `CCN1CCCc2cc(CN(CCN3CCOCC3)C(=S)Nc3ccc(OC)c(Cl)c3)ccc21` was run?
**A.** inactive: -11.7%

**Q.** `Cc1ccc(NC(=O)C2Cc3ccccc3C(=O)O2)cc1` (stereo unspecified) was tested. Which “activity, negative = inhibition” value did it give?
**A.** inactive: -9.76%

**Q.** How did the Potency turn out when `C=C1C(=O)C=C2CN(C(=O)c3ccccc3)[C@@](Cc3ccc(F)cc3)(C(=O)OC)[C@@H]12` was run?
**A.** inconclusive: 12.6 µM [inhibitor, partial curve] and inconclusive: 15.8 µM [inhibitor, partial curve]

**Q.** How did the Potency turn out when `C(=N\Nc1nc2ccccc2s1)/c1ccc2c(c1)OCO2` was run?
**A.** inconclusive: 39.8 µM [inhibitor, single point]

**Q.** How did the Potency turn out when `COc1cc(OC)c(NC2=C(c3ccc(C(F)(F)F)cc3)C(=O)c3ccccc32)cc1Cl` was run?
**A.** inconclusive: 8.91 µM [inhibitor, partial curve]

**Q.** How did the Potency turn out when `Cc1c(NC(=O)C(C)(C)Oc2ccc(Cl)cc2)cccc1-c1nc2ccccc2o1` was run?
**A.** inconclusive: 0.562 µM [inhibitor, full curve, poor fit]

**Q.** With `Cc1ccccc1-n1c(C)nnc1SCC(=O)NNC(=O)c1ccccc1` as the compound, how does the “activity, negative = inhibition” value read?
**A.** inactive: -5.3%

**Q.** With `CC(CNc1ccc([N+](=O)[O-])c2cccnc12)Nc1c([N+](=O)[O-])cc(C(F)(F)F)cc1[N+](=O)[O-]` (stereo unspecified) as the compound, how does the Potency read?
**A.** inconclusive: 14.1 µM [inhibitor, partial curve]

**Q.** How did the Potency turn out when `COc1cc2c3c(c1)C(C)=CC(C)(C)N3C(=O)C2=O` was run?
**A.** inconclusive: 14.1 µM [inhibitor, partial curve]

**Q.** With `Cc1ccc(-c2nn(CC(=O)NCc3ccccc3)c3c2cnc2ccc(F)cc23)cc1C` as the compound, how does the “activity, negative = inhibition” value read?
**A.** inactive: -8.68%

**Q.** `COc1ccc(-c2nc3ccccn3c2CN2CCN(c3ccccc3F)CC2)cc1` was tested. Which Potency did it give?
**A.** inconclusive: 39.8 µM [inhibitor, single point]

**Q.** Which Potency does the source give for `CCOc1ccccc1NC(=O)C(=O)/C=C(\O)c1cc(OC)ccc1OC` here?
**A.** inconclusive: 15.8 µM [inhibitor, partial curve]

**Q.** Which Potency does the source give for `COc1ccc(OC)c(C2=NNC(=NCc3ccc4c(c3)OCO4)SC2)c1` here?
**A.** inconclusive: 44.7 µM [inhibitor, single point]

**Q.** With `Cc1ccc(-n2ncc3c(N4CCN(c5ccccc5)CC4)ncnc32)c(C)c1` as the compound, how does the Potency read?
**A.** inconclusive: 3.16 µM [inhibitor, full curve]

**Q.** How did the “activity, negative = inhibition” value turn out when `COc1ccc(CNC(=O)CC(c2ccc(OC)cc2)N2Cc3ccccc3C2=O)cc1` (stereo unspecified) was run?
**A.** inactive: -16.7%

**Q.** How did the Potency turn out when `COc1ccccc1CC(=O)O/N=C(\N)c1cccc([N+](=O)[O-])c1` was run?
**A.** inconclusive: 12.6 µM [inhibitor, partial curve, poor fit]

**Q.** With `Cc1ccccc1-c1cc(-c2ccccc2O)n[nH]1` as the compound, how does the Potency read?
**A.** inconclusive: 14.1 µM [inhibitor, partial curve, poor fit]

**Q.** `CCOc1cccc(C(=O)Nc2cc(C)c(O)c(-c3nc4ncccc4o3)c2)c1` was tested. Which Potency did it give?
**A.** inconclusive: 20 µM [inhibitor, partial curve]

**Q.** `COC(=O)c1ccc(NC(=O)CSc2nnc3c4ccccc4n(C(C)C)c3n2)cc1` was tested. Which Potency did it give?
**A.** inconclusive: 2.82 µM [inhibitor, partial curve]

**Q.** For `CCCCNC(=S)Nc1ccc(Oc2ccccc2)cc1`, which Potency is on record?
**A.** inconclusive: 39.8 µM [inhibitor, single point]

**Q.** How did the Potency turn out when `O=C(Nc1sc2c(c1C(=O)Nc1ccccc1)CCC2)c1ccc(Br)cc1` was run?
**A.** inconclusive: 17.8 µM [inhibitor, partial curve]

**Q.** For `Cc1cccc(NC(=O)C(=O)NCC(c2ccc3c(c2)OCO3)N2CCN(c3ccccc3)CC2)c1` (stereo unspecified), which “activity, negative = inhibition” value is on record?
**A.** inactive: -9.45%

**Q.** For `Cc1ccc2[nH]c(=S)cc(C)c2c1`, which Potency is on record?
**A.** inconclusive: 39.8 µM [inhibitor, single point]

**Q.** For `CCN(CC)C(=O)Cc1cc(C(=O)O)c2ccccc2n1`, which “activity, negative = inhibition” value is on record?
**A.** inactive: -8.42%

**Q.** For `S=c1[nH]nc(-c2ccc(Cl)cc2)n1CCCN1CCOCC1`, which “activity, negative = inhibition” value is on record?
**A.** inactive: -0.0911%

**Q.** With `CCOC(=O)c1c(NC(=O)CSc2nnnn2C)sc(C)c1-c1ccc(C)cc1` as the compound, how does the Potency read?
**A.** inconclusive: 28.2 µM [inhibitor, single point]

**Q.** `COc1cc(C(c2c(C)[nH][nH]c2=O)c2c(C)[nH][nH]c2=O)ccc1OC(=O)c1cccc([N+](=O)[O-])c1` was tested. Which Potency did it give?
**A.** inconclusive: 15.8 µM [inhibitor, partial curve]

**Q.** With `CCN(CC)S(=O)(=O)c1ccc(N=Cc2c(C)c(C#N)c(=O)n(C)c2O)cc1` as the compound, how does the Potency read?
**A.** inconclusive: 1 µM [inhibitor, partial curve]

Reference: PubChem BioAssay AID1460 (National Center for Advancing Translational Sciences (NCATS), 2008)
